# Test results taken from the supplement of paper PMC8728848.
# The other results are listed elsewhere or left out.
# B1: PX14375C-bth-509-28-509 (Bacteroides thetaiotaomicron) (protein)
# chain: RSPQGQFTEDDNPNALVNGKIYNVYTMMRSFDITAGTPAIAIHYLRSEDSEKGSIPSDGSDVAEMYDDFLYTPTNGLLGSYWGKNYAIIYQCNDILDAIAEKETAGQTETEDIINKGEASFFRAYCYFNLVRAFGEVPLVTYKINDASEANIPKTTADKIYEQIDTDLKTAEESLPETWSTEYTGRLTWGAARSLHARTYMMRSDWDNMYKASTDVINKGLYNLKTPYNEIFTDDGENSGGSIFELQCTATAALPQSDVIGSQFCEVQGVRGAGQWDLGWGWHMATQLMADAYETGDPRKNATLLYFRKTDDEPITPENTNEPYGESPISPAMGAYFNKKAYTDPALRKEYTNKGFWVNIRLIRYSDVVLMAAEAANEKNIPGEAVDYLEMVRARARGTNTNILPKITTNDQGELREAIRHERRVELGLEPDRFYDLVRWGIASEVLHAAGKVNYQDKNALLPLPQSEIDKSKGVLVQNPDY
# Legend:
# Experiment in all cases: glycan array binding signal (z-score within array); higher = stronger binding
# Conditions in all cases: glycan notation: IUPAC condensed, linker removed
# Fuc(a1-3)GlcNAc = biological target: Fuc(a1-3)GlcNAc
# Summary of the method: (§1)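 Columns mapping to the same glycan were averaged after glycan names were converted to IUPAC-condensed notation. The data come from 3228 arrays in the Consortium for Functional Glycomics database, limited to those with an available protein sequence. Binding is reported as a within-array Z-score averaged across arrays of one protein sequence and across linkers.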
# [1] = biological target: Fuc(a1-3)[Gal(b1-4)]Glc6S
# Summary of the method: as §1
# [2] = biological target: Fuc(a1-3)[Gal(b1-4)]GlcNAc
# Summary of the method: as §1
# [3] = biological target: Fuc(a1-3)[Gal(b1-4)]GlcNAc(b1-2)Man
# Summary of the method: as §1
# [4] = biological target: Fuc(a1-3)[Gal(b1-4)]GlcNAc(b1-2)Man(a1-3)[Fuc(a1-3)[Gal(b1-4)]GlcNAc(b1-2)Man(a1-6)]Man(b1-4)GlcNAc(b1-4)GlcNAc
# Summary of the method: as §1
# [5] = biological target: Fuc(a1-3)[Gal(b1-4)]GlcNAc(b1-2)Man(a1-3)[Fuc(a1-3)[Gal(b1-4)]GlcNAc(b1-2)Man(a1-6)]Man(b1-4)GlcNAc(b1-4)[Fuc(a1-6)]GlcNAc
# Summary of the method: as §1
# [6] = biological target: Fuc(a1-3)[Gal(b1-4)]GlcNAc(b1-3)Gal(b1-3)[Fuc(a1-4)]GlcNAc
# Summary of the method: as §1
# [7] = biological target: Fuc(a1-3)[Gal(b1-4)]GlcNAc(b1-3)Gal(b1-4)[Fuc(a1-3)]GlcNAc
# Summary of the method: as §1
# [8] = biological target: Fuc(a1-3)[Gal(b1-4)]GlcNAc(b1-3)Gal(b1-4)[Fuc(a1-3)]GlcNAc(b1-3)Gal(b1-4)[Fuc(a1-3)]GlcNAc
# Summary of the method: as §1
# [9] = biological target: Fuc(a1-3)[Gal(b1-4)]GlcNAc(b1-3)GalNAc
# Summary of the method: as §1
# [10] = biological target: Fuc(a1-3)[Gal(b1-4)]GlcNAc(b1-6)GalNAc
# Summary of the method: as §1
# [11] = biological target: Fuc(a1-3)[Gal(b1-4)]GlcNAc(b1-6)[Gal(b1-3)GlcNAc(b1-3)]Gal(b1-4)Glc
# Summary of the method: as §1
# [12] = biological target: Fuc(a1-3)[Gal(b1-4)]GlcNAc6S
# Summary of the method: as §1
# [13] = biological target: Fuc(a1-3)[Gal3S(b1-4)]Glc
# Summary of the method: as §1
# [14] = biological target: Fuc(a1-3)[Gal3S(b1-4)]GlcNAc
# Summary of the method: as §1
# [15] = biological target: Fuc(a1-3)[Gal3S(b1-4)]GlcNAc6S
# Summary of the method: as §1
# [16] = biological target: Fuc(a1-3)[GalNAc(b1-4)]GlcNAc
# Summary of the method: as §1
# [17] = biological target: Fuc(a1-3)[GalNAc(b1-4)]GlcNAc6S
# Summary of the method: as §1
# Fuc(a1-4)GlcNAc = biological target: Fuc(a1-4)GlcNAc
# Summary of the method: as §1
# Fuc(b1-3)GlcNAc = biological target: Fuc(b1-3)GlcNAc
# Summary of the method: as §1
# Gal(a1-2)Gal = biological target: Gal(a1-2)Gal
# Summary of the method: as §1
# Gal(a1-3)Gal = biological target: Gal(a1-3)Gal
# Summary of the method: as §1
# Gal(a1-3)Gal(b1-3)GlcNAc = biological target: Gal(a1-3)Gal(b1-3)GlcNAc
# Summary of the method: as §1
# [18] = biological target: Gal(a1-3)Gal(b1-3)GlcNAc(b1-2)Man
# Summary of the method: as §1
# [19] = biological target: Gal(a1-3)Gal(b1-3)GlcNAc(b1-2)Man(a1-3)[Gal(a1-3)Gal(b1-3)GlcNAc(b1-2)Man(a1-6)]Man(b1-4)GlcNAc(b1-4)GlcNAc
# Summary of the method: as §1
# [20] = biological target: Gal(a1-3)Gal(b1-3)GlcNAc(b1-3)GalNAc
# Summary of the method: as §1
# [21] = biological target: Gal(a1-3)Gal(b1-3)GlcNAc(b1-6)GalNAc
# Summary of the method: as §1
# [22] = biological target: Gal(a1-3)Gal(b1-3)[Fuc(a1-4)]GlcNAc(b1-2)Man(a1-3)[Gal(a1-3)Gal(b1-3)[Fuc(a1-4)]GlcNAc(b1-2)Man(a1-6)]Man(b1-4)GlcNAc(b1-4)GlcNAc
# Summary of the method: as §1
# Gal(a1-3)Gal(b1-4)Glc = biological target: Gal(a1-3)Gal(b1-4)Glc
# Summary of the method: as §1
# Gal(a1-3)Gal(b1-4)GlcNAc = biological target: Gal(a1-3)Gal(b1-4)GlcNAc
# Summary of the method: as §1
# [23] = biological target: Gal(a1-3)Gal(b1-4)GlcNAc(b1-2)Man
# Summary of the method: as §1
# [24] = biological target: Gal(a1-3)Gal(b1-4)GlcNAc(b1-2)Man(a1-3)[Gal(a1-3)Gal(b1-4)GlcNAc(b1-2)Man(a1-6)]Man(b1-4)GlcNAc(b1-4)GlcNAc
# Summary of the method: as §1
# [25] = biological target: Gal(a1-3)Gal(b1-4)GlcNAc(b1-3)GalNAc
# Summary of the method: as §1
# [26] = biological target: Gal(a1-3)Gal(b1-4)GlcNAc(b1-6)GalNAc
# Summary of the method: as §1
# [27] = biological target: Gal(a1-3)Gal(b1-4)[Fuc(a1-3)]GlcNAc
# Summary of the method: as §1
# [28] = biological target: Gal(a1-3)Gal(b1-4)[Fuc(a1-3)]GlcNAc(b1-2)Man(a1-3)[Gal(a1-3)Gal(b1-4)[Fuc(a1-3)]GlcNAc(b1-2)Man(a1-6)]Man(b1-4)GlcNAc(b1-4)GlcNAc
# Summary of the method: as §1
# Gal(a1-3)GalNAc = biological target: Gal(a1-3)GalNAc
# Summary of the method: as §1
binder,measurement,setting,value
B1,glycan array binding signal (z-score),Fuc(a1-3)GlcNAc,-0.139
same,glycan array binding signal (z-score),[1],-0.065
same,glycan array binding signal (z-score),[2],-0.155
same,glycan array binding signal (z-score),[3],-0.131
same,glycan array binding signal (z-score),[4],1.05
same,glycan array binding signal (z-score),[5],0.724
same,glycan array binding signal (z-score),[6],-0.158
same,glycan array binding signal (z-score),[7],-0.101
same,glycan array binding signal (z-score),[8],-0.164
same,glycan array binding signal (z-score),[9],-0.155
same,glycan array binding signal (z-score),[10],0.097
same,glycan array binding signal (z-score),[11],-0.515
same,glycan array binding signal (z-score),[12],-0.275
same,glycan array binding signal (z-score),[13],-0.391
same,glycan array binding signal (z-score),[14],-0.186
same,glycan array binding signal (z-score),[15],-0.332
same,glycan array binding signal (z-score),[16],0.429
same,glycan array binding signal (z-score),[17],-0.401
same,glycan array binding signal (z-score),Fuc(a1-4)GlcNAc,-0.417
same,glycan array binding signal (z-score),Fuc(b1-3)GlcNAc,-0.313
same,glycan array binding signal (z-score),Gal(a1-2)Gal,0.105
same,glycan array binding signal (z-score),Gal(a1-3)Gal,-0.148
same,glycan array binding signal (z-score),Gal(a1-3)Gal(b1-3)GlcNAc,-0.256
same,glycan array binding signal (z-score),[18],-0.429
same,glycan array binding signal (z-score),[19],0.935
same,glycan array binding signal (z-score),[20],-0.344
same,glycan array binding signal (z-score),[21],-0.364
same,glycan array binding signal (z-score),[22],-0.273
same,glycan array binding signal (z-score),Gal(a1-3)Gal(b1-4)Glc,-0.196
same,glycan array binding signal (z-score),Gal(a1-3)Gal(b1-4)GlcNAc,1.17
same,glycan array binding signal (z-score),[23],-0.161
same,glycan array binding signal (z-score),[24],0.762
same,glycan array binding signal (z-score),[25],-0.308
same,glycan array binding signal (z-score),[26],0.233
same,glycan array binding signal (z-score),[27],-0.395
same,glycan array binding signal (z-score),[28],1.41
same,glycan array binding signal (z-score),Gal(a1-3)GalNAc,-0.254
